{"source": "PubChem BioAssay AID485294", "about": "(National Center for Advancing Translational Sciences (NCATS), 2010)", "note": "About 150 (0.041%) of roughly 370,000 compounds were called active. The shares of active, inactive and inconclusive entries below differ from those in the screen. Calls come from the whole dose curve; as a rule, active = well fitted inhibition curve with a large enough effect; inconclusive = small, poorly fitted or top-dose-only effect; inactive = flat fitted curve, though single readings scatter. Potencies of inconclusive entries are left out as doubtful fits. Potency is the fitted concentration of half-maximal effect; tags give direction and shape of the fitted curve.", "data": [{"biological_target": "Beta-lactamase (Escherichia coli (strain K12)) (UniProt P00811)", "sequence (P00811 whole entry, looked up)": "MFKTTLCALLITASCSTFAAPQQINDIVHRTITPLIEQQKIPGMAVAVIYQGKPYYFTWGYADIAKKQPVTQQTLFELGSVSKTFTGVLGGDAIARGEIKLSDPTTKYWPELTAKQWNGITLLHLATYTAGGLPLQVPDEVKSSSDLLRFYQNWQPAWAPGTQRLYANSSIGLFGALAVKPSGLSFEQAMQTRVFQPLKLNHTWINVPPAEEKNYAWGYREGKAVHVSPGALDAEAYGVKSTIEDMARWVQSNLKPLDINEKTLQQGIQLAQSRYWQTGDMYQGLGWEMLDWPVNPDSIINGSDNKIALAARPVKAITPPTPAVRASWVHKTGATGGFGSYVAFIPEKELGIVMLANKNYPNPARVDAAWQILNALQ", "assay": "qHTS Inhibitors of AmpC Beta-Lactamase (assay with detergent); note: nearly all actives have a fitted effect of over 25% in size;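 for activity change, negative = inhibition: 0% = no-compound wells and -100% = no-enzyme wells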", "conditions": "AmpC hydrolysis of nitrocefin, absorbance 480 nm, 0.01% Triton; activity change, negative = inhibition: at 114 µM (top of the series)", "outline": "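AmpC (5.3 nM in the dispensed reagent) in 20 mM phosphate pH 7.0 with 0.01% (detergent screen) or 0.0001% Triton X-100 was preincubated with compounds for 15 min at room temperature. Nitrocefin was then added from an 800 uM solution, and hydrolysis was followed at 480 nm.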", "values": [{"smiles": "Clc1ccc(CNCCCSc2ncccn2)cc1", "Potency": "inconclusive [inhibitor, partial curve]"}, {"smiles": "COc1ccc(S(=O)(=O)N2CCC(C(=O)NCCc3ccc4c(c3)OCO4)CC2)cc1", "Potency": "inconclusive [inhibitor, full curve, poor fit]"}, {"smiles": "CC(=O)c1c(C)[nH]c(C(=O)OCC(=O)NCc2cccs2)c1C", "Potency": "inconclusive [inhibitor, full curve, poor fit]"}, {"smiles": "CSCc1c(C(=O)N2CCCc3ccccc32)oc2ccccc12", "activity change, negative = inhibition": "inactive: -1.84%"}, {"smiles": "CC(=O)c1cccc(N2C(=O)CN(S(C)(=O)=O)CC2(C)C(=O)NC2CCCC2)c1", "note": "(stereo unspecified)", "activity change, negative = inhibition": "inactive: 16.2%"}, {"smiles": "CCC1(CCc2ccncc2)C(=O)NC(=O)NC1=O", "Potency": "inconclusive [inhibitor, full curve, poor fit]"}, {"smiles": "Cc1nn(CC(O)c2ccccc2)c(C)c1Br", "note": "(stereo unspecified)", "Potency": "inconclusive [inhibitor, full curve, poor fit]"}, {"smiles": "CCCCCCC(=O)N(O)C1CC(=O)N(c2ccc(C)cc2)C1=O", "note": "(stereo unspecified)", "Potency": "inconclusive [inhibitor, partial curve, poor fit]"}, {"smiles": "COc1ccc(S(=O)(=O)N(CCc2ccccc2)CC(=O)Nc2cc(C)cc(C)c2)cc1OC", "activity change, negative = inhibition": "inactive: -2.88%"}, {"smiles": "O=C(NC(=S)N1CCOCC1)c1cn(-c2ccccc2)nc1-c1ccc(F)cc1", "Potency": "inconclusive [inhibitor, partial curve, poor fit]"}, {"smiles": "Cc1cccc(NC(=O)CSc2nc3nc(C)cc(C)n3n2)c1", "Potency": "inconclusive [inhibitor, full curve]"}, {"smiles": "Cc1nnc(SCC(=O)Nc2ccc3c(c2)COC3=O)n1-c1ccccc1", "Potency": "inconclusive [inhibitor, partial curve, poor fit]"}, {"smiles": "CCc1ccc(C=NC23CN4CN(CN(C4)C2)C3)s1", "Potency": "inconclusive [inhibitor, full curve, poor fit]"}, {"smiles": "Cc1cccc(-n2nnc(-c3nc(-c4cccs4)no3)c2N)c1", "activity change, negative = inhibition": "inactive: -2.12%"}, {"smiles": "Cc1snnc1C(=O)NC(=S)Nc1ccccc1", "activity change, negative = inhibition": "inactive: -4.01%"}, {"smiles": "CC1CCN(CCCNC(=O)CN2CCN(Cc3ccc(Cl)cc3)C2=O)CC1", "Potency": "inconclusive [inhibitor, full curve, poor fit]"}, {"smiles": "COc1ccc(OC)c(NC(=O)CC2SC(=Nc3ccccc3)N(CCc3ccccn3)C2=O)c1", "note": "(stereo unspecified)", "Potency": "inconclusive [inhibitor, full curve]"}, {"smiles": "COc1ccc(NC(C)=O)cc1S(=O)(=O)N(C)Cc1c(C)nn(-c2ccccc2)c1C", "activity change, negative = inhibition": "inactive: 0.606%"}, {"smiles": "O=C1C2CC=C(Cl)CC2C(=O)N1CCN1CCOCC1", "note": "(stereo unspecified)", "Potency": "inconclusive [inhibitor, full curve, poor fit]"}, {"smiles": "COc1cccc(OC)c1OCCN1CCN(C(=O)c2ccco2)CC1", "Potency": "inconclusive [inhibitor, full curve, poor fit]"}, {"smiles": "O=C(Nc1ccc2oc(-c3cccnc3)nc2c1)c1cc2ccccc2o1", "Potency": "inconclusive [inhibitor, full curve, poor fit]"}, {"smiles": "O=C(NCCCN1CCOCC1)c1cc(-c2ccc(F)cc2)on1", "Potency": "inconclusive [inhibitor, single point]"}, {"smiles": "O=C(Nc1cccc2cccnc12)C1CCCC1", "Potency": "inconclusive [inhibitor, partial curve, poor fit]"}, {"smiles": "CCSc1nnc(NC(=O)c2cccnc2)s1", "activity change, negative = inhibition": "inactive: -8.88%"}, {"smiles": "Cc1ccc2c(c1)/C(=C/c1ccccc1)C(=O)N2", "activity change, negative = inhibition": "inactive: 0.687%"}, {"smiles": "O=C(N/N=C/c1cccs1)c1cccc2cc[nH]c12", "Potency": "inconclusive [inhibitor, single point]"}, {"smiles": "O=C(C[n+]1cccc(CNC(=O)c2ccc(OC(F)F)cc2)c1)Nc1cccc(C(F)(F)F)c1", "Potency": "inconclusive [inhibitor, partial curve, poor fit]"}, {"smiles": "CC(C)(C)OC(=O)N1Cc2cc3ccccc3nc2C1CO", "note": "(stereo unspecified)", "Potency": "inconclusive [inhibitor, partial curve, poor fit]"}, {"smiles": "COc1ccc(C(CCN2CCOCC2)c2c(OC)cc(OC)c3c(C)cc(=O)oc23)cc1", "note": "(stereo unspecified)", "activity change, negative = inhibition": "inactive: -5.53%"}, {"smiles": "Cc1ccsc1CNCC(O)c1ccccc1", "note": "(stereo unspecified)", "Potency": "inconclusive [inhibitor, full curve, poor fit]"}, {"smiles": "O=C(NC1CCCCCC1)c1ccc(CS(=O)c2cccc(Cl)c2)o1", "note": "(stereo unspecified)", "activity change, negative = inhibition": "inactive: 2.8%"}, {"smiles": "COc1ccc(/C=C/C(=O)c2cc3cccc(OC)c3oc2=O)cc1", "activity change, negative = inhibition": "inactive: -8.19%"}, {"smiles": "COc1cccc(CNC(=O)C2CCC(CNc3nc(=S)[nH]c4ccccc34)CC2)c1", "note": "(stereo unspecified)", "activity change, negative = inhibition": "inactive: 13.6%"}, {"smiles": "C/C(=N\\NC(=O)COc1ccc(C(C)(C)C)cc1)c1ccccc1", "activity change, negative = inhibition": "inactive: -0.485%"}, {"smiles": "Cc1csc(=O)n1CC(=O)OCC(=O)NNC(=O)c1ccc(Cl)cc1", "activity change, negative = inhibition": "inactive: -17.4%"}, {"smiles": "COC(=O)C1CN(C(=O)COc2cccc(C)c2C)c2ccccc2O1", "note": "(stereo unspecified)", "activity change, negative = inhibition": "inactive: 11.1%"}, {"smiles": "Cc1ccc(S(=O)(=O)N2CCOC2CNC(=O)C(=O)NCc2ccccn2)cc1", "note": "(stereo unspecified)", "activity change, negative = inhibition": "inactive: 1.48%"}, {"smiles": "COCCN1C2=C(C(=O)CC(C)(C)C2)C(c2ccc(O)c(OC)c2)C2=C1CC(C)(C)CC2=O", "Potency": "inconclusive [inhibitor, partial curve]"}, {"smiles": "O=C(COc1ccccc1)N=C1SC2CS(=O)(=O)CC2N1c1cccc(F)c1", "note": "(stereo unspecified)", "Potency": "inconclusive [inhibitor, partial curve, poor fit]"}, {"smiles": "COc1cc(NC(=O)c2cc(Cl)nnc2Cl)cc(OC)c1OC", "activity change, negative = inhibition": "inactive: 1.8%"}, {"smiles": "CC(NC(=O)CNC(=O)c1sc2ccccc2c1Cl)c1ccc(S(N)(=O)=O)cc1", "note": "(stereo unspecified)", "Potency": "inconclusive [inhibitor, full curve]"}, {"smiles": "Cc1cc2ncn(CC(O)COC3CCCCC3)c2cc1C", "note": "(stereo unspecified)", "Potency": "inconclusive [inhibitor, full curve]"}, {"smiles": "COC(=O)c1cccc(OC(N)=O)c1", "Potency": "inconclusive [inhibitor, full curve]"}, {"smiles": "COc1ccc(S(=O)(=O)N2CC=C(C(=O)Nc3ccc(NC(C)=O)cc3)CC2)cc1", "Potency": "inconclusive [inhibitor, full curve]"}, {"smiles": "CC(C)CCN(Cc1ccco1)S(=O)(=O)c1ccc(-c2ccc(=O)[nH]n2)s1", "activity change, negative = inhibition": "inactive: -4.48%"}, {"smiles": "O=C1CCSc2ccc(S(=O)(=O)Nc3cccc(C(F)(F)F)c3)cc2N1", "activity change, negative = inhibition": "inactive: 10.5%"}, {"smiles": "COc1cccc(OC)c1OC(=O)/C=C/c1ccc(C)o1", "activity change, negative = inhibition": "inactive: -6.85%"}, {"smiles": "Cc1cc([N+](=O)[O-])nn1Cc1ccc(C(=O)N/N=C/c2ccc(O)cc2O)cc1", "Potency": "inconclusive [inhibitor, single point]"}, {"smiles": "Cc1ccccc1-n1nc2c(c1NC(=O)c1cccc(F)c1)CS(=O)C2", "note": "(stereo unspecified)", "Potency": "inconclusive [inhibitor, partial curve]"}, {"smiles": "O=c1c2ccccc2[nH]c2ccccc12", "activity change, negative = inhibition": "inactive: -6.25%"}, {"smiles": "Cc1ccc(C)c(CN2C(=O)c3ccccc3S(=O)c3ccc(C(=O)NCCCN4CCCC4)cc32)c1", "note": "(stereo unspecified)", "Potency": "inconclusive [inhibitor, full curve, poor fit]"}, {"smiles": "CC(C)C1Cc2c(sc(NC(=S)NC(=O)c3ccccc3)c2C#N)CO1", "note": "(stereo unspecified)", "activity change, negative = inhibition": "inactive: -9.45%"}, {"smiles": "CC(=O)c1cccc(NC(=O)CSc2nc(=O)n(CCCN3CCOCC3)c3c2CCC3)c1", "Potency": "inconclusive [inhibitor, full curve, poor fit]"}, {"smiles": "O=c1c2sccc2n(Cc2cc(=O)n3cc(Cl)ccc3n2)c(=O)n1-c1ccccc1", "activity change, negative = inhibition": "inactive: 16%"}, {"smiles": "CCOc1ccccc1N1C(=O)CC(=O)NC1=O", "Potency": "inconclusive [inhibitor, full curve, poor fit]"}, {"smiles": "Cc1nn(C)c(=O)n1-c1ccc(Oc2ccccc2)cc1", "activity change, negative = inhibition": "inactive: -2.13%"}, {"smiles": "CCOCc1nnc(NC(=O)c2cc(OC)c(OC)cc2[N+](=O)[O-])s1", "Potency": "inconclusive [inhibitor, full curve, poor fit]"}, {"smiles": "O=C1c2ccccc2C(O)N1Cc1ccc2c(c1)OCO2", "note": "(stereo unspecified)", "Potency": "inconclusive [inhibitor, full curve]"}, {"smiles": "CC(C)N1C(=O)/C(=C/c2nc3ccccc3c(=O)n2-c2ccccc2)c2ccccc21", "activity change, negative = inhibition": "inactive: 4.78%"}, {"smiles": "O=[N+]([O-])c1ccccc1N/N=C/c1cc2ccccc2nc1Cl", "activity change, negative = inhibition": "inactive: -0.939%"}, {"smiles": "CC1(C)Cc2c(cnn2-c2ccc(F)cc2)C(NC(=O)C(C)(C)O)C1", "note": "(stereo unspecified)", "Potency": "inconclusive [inhibitor, full curve, poor fit]"}, {"smiles": "Cc1ccc(Cl)cc1Nc1nn2c(=O)c3ccc(C(=O)NC4CCCCC4)cc3nc2s1", "activity change, negative = inhibition": "inactive: -1.28%"}, {"smiles": "Cc1ccc(NC(=O)C2CCN(S(=O)(=O)c3cccc4cccnc34)CC2)nc1", "Potency": "inconclusive [inhibitor, full curve, poor fit]"}, {"smiles": "COc1ccc(OC)c(NC(=O)CS(=O)(=O)Cc2nc(-c3ccc(C)cc3)oc2C)c1", "activity change, negative = inhibition": "inactive: -0.876%"}, {"smiles": "CCCC(=O)Nc1ccc(C(=O)NNC(=O)c2ccccc2Br)cc1", "Potency": "inconclusive [inhibitor, full curve, poor fit]"}, {"smiles": "CCOc1ccc(NC(=O)CNC(=O)c2nn(-c3ccc(OC)cc3)c(=O)c3ccccc23)cc1", "Potency": "inconclusive [inhibitor, full curve, poor fit]"}, {"smiles": "CCC(=O)Nc1ccc(Cl)c(NC(=S)NC(=O)COc2ccccc2)c1", "Potency": "inconclusive [inhibitor, partial curve, poor fit]"}, {"smiles": "C=CCn1cc(C(C)=O)c(=O)[nH]c1=O", "Potency": "inconclusive [inhibitor, full curve, poor fit]"}, {"smiles": "O=C(N/N=C/c1ccc(-c2ccccc2Cl)o1)c1ccccc1", "activity change, negative = inhibition": "inactive: 5.78%"}, {"smiles": "COc1ccc(C(=O)NC(=S)Nc2ccc(N3CCOCC3)c(Cl)c2)cc1[N+](=O)[O-]", "Potency": "inconclusive [inhibitor, single point]"}, {"smiles": "CCC(C)(C)n1nnnc1C(c1ccccn1)N1CCCCC1", "note": "(stereo unspecified)", "Potency": "inconclusive [inhibitor, single point]"}]}]}
